Reference: patent publication EP1421935A1 (Casini, Angela, priority 2002, dated 2004)
At least one read-out could not be matched to a standard name with certainty.

Test system: IOP of normotensive rabbits
Assay: tonometric measurement of IOP after topical administration
Type: in vivo, New Zealand albino rabbits
Conditions: IOP control eye - IOP treated eye (N = 3); for Δ IOP ± SE (mm Hg) 90 min: 90 min after one drop (50 µL) of 2% solution; for Δ IOP ± SE (mm Hg) 30 min: 30 min after one drop (50 µL) of 2% solution; for Δ IOP ± SE (mm Hg) 60 min: 60 min after one drop (50 µL) of 2% solution
Description: Tonometric measurement of IOP are performed as follows.
Adult male New Zealand albino rabbits weighing 3-3.5 kg are used in the experiments. Three animals are used for each inhibitor studied. The experimental procedures conform to the Association for Research in Vision and Ophthalmology Resolution on the use of animals. The rabbits are kept in individual cages with food and water provided ad libitum and maintained on a 12 h light/dark cycle in a temperature controlled room, at 22-26 °C. Solutions and suspensions of inhibitors (2 %, by weight, as hydrochlorides, or sodium carboxylates) are made in distilled deionized water. The pH of these solutions is in the range of 5.5 - 7.4.
IOP is measured using a Digilab 30R pneumatonometer (BioRad, Cambridge, MA, USA) as described by Maren et al. (Maren et al., Exp. Eye Res. 55:73-79, 1992; Brechue et al., Invest. Ophthalmol. Vis. Sci. 34:2581-2587,1993). The pressure readings are matched with two-point standard pressure measurements at least twice each day using a Digilab Calibration verifier. All IOP measurements are done by the same investigator with the same tonometer. One drop of 0.2 % oxybuprocaine hydrochloride (novesine, Sandoz) diluted 1:1 with saline is instilled in each eye immediately before each set of pressure measurements. IOP is measured three times at each time interval, and the means reported. IOP is measured first immediately before drug administration, then at 30 min after the instillation of the pharmacological agent, and then each 30 minutes for a period of 4-6 hours. For all IOP experiments drug is administered to only one eye, leaving the contralateral eye as an untreated control. The ocular hypotensive activity is expressed as the average difference in IOP between the treated and control eye, in this way minimizing the diurnal, seasonal and inter-individual variations commonly observed in the rabbit (Id.). All data are expressed as mean ± SE. Ocular hypertension is elicited in the right eye of albino rabbits by the injection of α-chymotrypsin (from Sigma) as described by Sugrue et al. (Sugrue et al., Br. J. Pharmacol. 99:59-64, 1990). The IOP of operated animals is checked after approximately four weeks, and animals with an elevated pressure of 30-36 mm Hg are used at least one month after the injection of α-chymotrypsin.
In vivo IOP lowering experiments are done in normotensive and glaucomatous rabbits, with many of the new compounds reported here, due to their strong CA II and CA IV inhibitory properties, such as B7, B10-B13, B15, B18-B22, B25, B27, B28, B33, B37, and A40. […] Measurements are at 30, 60 and 90 min after administration Table 3.

SMILES	Δ IOP ± SE (mm Hg) 90 min	Δ IOP ± SE (mm Hg) 30 min	Δ IOP ± SE (mm Hg) 30 min (listed as 812)	Δ IOP ± SE (mm Hg) 60 min (listed as 812)	Δ IOP ± SE (mm Hg) 90 min (listed as 812)	Δ IOP ± SE (mm Hg) 60 min
NS(=O)(=O)c1ccc(CNC(=S)NCCc2c[nH]cn2)cc1 [B10, 1-(4-Sulfamoylphenylmethyl)-3-[(1H-imidazol)-4-yl-ethyl]-thiourea]	0.0 mm Hg					
NS(=O)(=O)c1ccc(CNC(=S)Nc2ccccc2C(=O)O)cc1 [B11]	4.3±0.10 mm Hg	4.2±0.15 mm Hg				
NS(=O)(=O)c1ccc(CNC(=S)Nc2cccc(C(=O)O)c2)cc1 [B12]			4.0±0.10 mm Hg	8.1±0.20 mm Hg	9.0±0.30 mm Hg	
CC(NC(=S)NCc1ccc(S(N)(=O)=O)cc1)C(=O)O (stereo not drawn) [B15]	5.0±0.20 mm Hg	3.3±0.10 mm Hg				
NS(=O)(=O)c1ccc(CNC(=S)NC(C(=O)O)c2ccccc2)cc1 (stereo not drawn) [B18]	2.0±0.10 mm Hg	6.4±0.30 mm Hg				2.5±0.15 mm Hg
NS(=O)(=O)c1ccc(CNC(=S)NC(CO)C(=O)O)cc1 (stereo not drawn) [B19]	8.3±0.30 mm Hg	6.7±0.15 mm Hg				9.1±0.25 mm Hg
NS(=O)(=O)c1ccc(CNC(=S)NC(C(=O)O)C(O)c2ccccc2)cc1 (stereo not drawn) [B20]	9.4±0.15 mm Hg	8.6±0.20 mm Hg				10.3±0.25 mm Hg
NS(=O)(=O)c1ccc(CNC(=S)NC(CS)C(=O)O)cc1 (stereo not drawn) [B22]	0.0 mm Hg	0.0 mm Hg				0.0 mm Hg
CC(C)CC(NC(=S)NCc1ccc(S(N)(=O)=O)cc1)C(=O)O (stereo not drawn) [B25]		5.4±0.15 mm Hg				
NC(=O)CC(NC(=S)NCc1ccc(S(N)(=O)=O)cc1)C(=O)O (stereo not drawn) [B28]	7.4±0.20 mm Hg	6.3 ±0.15 mm Hg				9.1 ± 0.30 mm Hg
NCCCCC(NC(=S)NCc1ccc(S(N)(=O)=O)cc1)C(=O)O (stereo not drawn) [B37]	0.0 mm Hg	0.0 mm Hg				0.0 mm Hg
